From patent US7741443 (CRUCELL HOLLAND B V, dated 2010) come the findings set out here.

Assay [1] deals with T1, human C-type lectin (human, UniProt Q5QGZ9 1-265).
T1 construct: also called antigen recognized by SC02-357; protein encoded by the 7H10-A cDNA insert
T1 sequence: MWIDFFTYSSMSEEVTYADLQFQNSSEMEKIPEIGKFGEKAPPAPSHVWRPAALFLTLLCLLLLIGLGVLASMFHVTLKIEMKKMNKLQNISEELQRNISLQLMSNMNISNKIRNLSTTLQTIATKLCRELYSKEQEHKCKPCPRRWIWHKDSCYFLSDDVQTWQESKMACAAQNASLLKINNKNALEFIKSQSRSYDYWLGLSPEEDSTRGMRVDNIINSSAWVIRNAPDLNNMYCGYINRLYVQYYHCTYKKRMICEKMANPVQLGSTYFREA
The experiment in a line: flow cytometry of phage antibody on 293T cells transfected with plasmid 7H10-A (human C-type lectin) or mock; anti-M13 biotin and streptavidin-PE (FL2-H).

The target of assay [2] is T1, human C-type lectin. Nature of the assay: flow cytometry, phage antibody on 293T cells transfected with plasmid 7H10-A (data not shown). On the technique in general: A flow cytometer gives signals particle by particle.

B1: SC02-357 phage antibody (scFv)
scFv: QVQLQESGPGLVKPSETLSLTCVVSGGSISSSNWWSWVRQPPGKGLEWIGEIYHSGSPDYNPSLKSRVTISVDKSRNQFSLKLSSVTAADTAVYYCAKVSTGGFFDYWGQGTLVTVSSGGGGSGGGGSGGGGSEIELTQSPSSLSASVGDRVTIT[letters of about 80 residues not shown]FGPGTKVEIK
notes: also called scFv SC02-357
In the case of B1, in the assay with human C-type lectin [1], the binding result is recorded as “binds”.

B2: SC02-378 phage antibody (scFv)
scFv: QVQLQESGPGLVKPSETLSLTCVVSGGSISSSNWWSWVRQPPGKGLEWIGEIYHSGSPNYNPSLKSRVTISVDKSKNQFSLKLSSVTAADTAVYYCARSSSGGFFDYWGQGTLVTVSSGGGGSGGGGSGGGGSEIELTQSPSSLSASVGDRVTIT[letters of about 80 residues not shown]FGQGTKVEIKRAAA
notes: Same light chain as SC02-357; also called scFv SC02-378
Regarding B2, the binding result with human C-type lectin [2] is reported as “binds”.

B3: SC02-161 phage antibody (scFv)
scFv: QVQLQESGPGLVKPSETLSLTCVVSGGSISSSNWWSWVRQPPGKGLEWIGEIYHSGSPNYNPSLKSRVTISVDKSKNQFSLKLSSVTAADTAVYYCARQTTAGSFDYWGQGTLVTVSSGGGGSGGGGSGGGGSEIELTQSPSSLSASVGDRVTIT[letters of about 80 residues not shown]FGQGTKVEIKRAAA
notes: Same light chain as SC02-357; also called scFv SC02-161
As to B3, in the assay with human C-type lectin [2], the binding result is recorded as “binds”.
